This is an account of results in patent US20210292393A1 (published 2021).

The target in this test is SARS-CoV-2 spike (S) protein (SARS-CoV-2).

B1: antibody 274 (antibody, V domains shown)
VH: QVQLVESGGGVVQPGRSLRLSCAASGFTFSSYAMHWVRQAPGKGLEWVAVISYDGSNKYYADSVKGRFTISRDNSKNTLYLQMNSLRAEDTAVYYCARDSESDSSGWLHYFDYWGQGTLVTVSS
VL: not shown
Broadly, the Kd is a measure of binding affinity in units of concentration. By koff is commonly meant a measure of how fast the partners let go of each other. Read a low koff as a long-lived complex. The term kon denotes the second-order rate constant of association. A high value points to fast association. B1 came in with a Kd of 28.4 nM, a dissociation rate constant (koff) of 0.000854 s⁻¹ and a kon of 30100 M⁻¹ s⁻¹.
